Assays:
[1] = molecular target: SARS-CoV-2 Alpha (B.1.1.7) Spike on pseudovirions (SARS-CoV-2); assay: cell-based or functional assay
[2] = molecular target: SARS-CoV-2 Beta (B.1.351) Spike on pseudovirions (SARS-CoV-2); assay: cell-based or functional assay

B1: ShAb13a (ShAb13 VNAR-3c-Fc) (Fc fusion)
chain: ARVDQTPRSVTKETGESLTINCVLRDASYALGSTCWYRKKSGSTNEERISKGGRYVETVNSGSKSFSLRINDLTVEDGGTYRCGVWPGYNWCGSCDYRGDYNFCGDGTAVTVNSREPKSCDKGLEVLFQ[no letters for human IgG1 Fc and a few adjoining residues]
pseudovirus neutralization IC50 [1]: 13.4 µg/mL | pseudovirus neutralization IC80 [1]: > 50 µg/mL | pseudovirus neutralization IC50 [2]: 20.2 µg/mL | pseudovirus neutralization IC80 [2]: > 50 µg/mL

B2: ShAb23a (ShAb23 VNAR-3c-Fc) (Fc fusion)
chain: ARVDQTPQTITKETGESLTINCVLRDSNCALGSTYWYRKKSGSTNEENISKGGRYVETVRSGSKSLSLRINDLTVEDSGTYRCKVSRLSWYPESRWNCDNYDVYGDGTAVTVNSREPKSCDKGLEVLFQ[no letters for human IgG1 Fc and a few adjoining residues]
pseudovirus neutralization IC50 [1]: 0.29 µg/mL | pseudovirus neutralization IC80 [1]: 1.18 µg/mL | pseudovirus neutralization IC50 [2]: 0.024 µg/mL | pseudovirus neutralization IC80 [2]: 0.104 µg/mL

B3: ShAb12a (ShAb12 VNAR-3c-Fc) (Fc fusion)
chain: ARVDQTPRSVTKETGESLTINCVLRDTNCPLYAAYWYRKSPGSTNEETIWATGRYVQTVNSGLKTFSLRINDLTSEDSGTYRCNGQTWCPATKNNDISGGGTVVTVNSREPKSCDKGLEVLFQ[no letters for human IgG1 Fc and a few adjoining residues]
pseudovirus neutralization IC50 [1]: 3.95 µg/mL | pseudovirus neutralization IC80 [1]: 14.3 µg/mL | pseudovirus neutralization IC50 [2]: 17.3 µg/mL | pseudovirus neutralization IC80 [2]: > 50 µg/mL

B4: ShAb04a (ShAb04 VNAR-3c-Fc) (Fc fusion)
chain: ARVDQTPQTITKETGESLTINCGLRDSNCALSSTYWYRKKSGSTNEESISKGGRYVETVNSGPLTFSLRINDLTVEDSGTYRCKVSCLAIPIGPHYDVYGGGTVVTVNSREPKSCDKGLEVLFQ[no letters for human IgG1 Fc and a few adjoining residues]
pseudovirus neutralization IC50 [1]: 18.6 µg/mL | pseudovirus neutralization IC80 [1]: > 50 µg/mL | pseudovirus neutralization IC50 [2]: 37 µg/mL | pseudovirus neutralization IC80 [2]: > 50 µg/mL

B5: ShAb08a (ShAb08 VNAR-3c-Fc) (Fc fusion)
chain: ARVDQTPKTITKETGESLTINCVLRDSNCAASSTYWYRKKSGSNNEESISKGGRYVETVNSGSKSFSLRINDLTVEDSGTYRCNVEGYSCGLYSVEDYYGGGTVVTVNSREPKSCDKGLEVLFQ[no letters for human IgG1 Fc and a few adjoining residues]
pseudovirus neutralization IC50 [1]: 10.5 µg/mL | pseudovirus neutralization IC80 [1]: > 50 µg/mL | pseudovirus neutralization IC50 [2]: > 50 µg/mL | pseudovirus neutralization IC80 [2]: > 50 µg/mL

B6: ShAb18a (ShAb18 VNAR-3c-Fc) (Fc fusion)
chain: ARVDQTPRSVTKETGESLTINCVLREARYELGKTCWYRKRAGSTNEESISAGGRYVETVISGSKSFSLRINDLTVEDGGTYRCGVPPAGWCSKVSCDHVGAGVLEPAACGGGTVVTVNSREPKSCDKGLEVLFQ[no letters for human IgG1 Fc and a few adjoining residues]
pseudovirus neutralization IC50 [1]: 0.196 µg/mL | pseudovirus neutralization IC80 [1]: 2.22 µg/mL | pseudovirus neutralization IC50 [2]: 0.494 µg/mL | pseudovirus neutralization IC80 [2]: 1.83 µg/mL

B7: ShAb11a (ShAb11 VNAR-3c-Fc) (Fc fusion)
chain: ARVDQTPQTITKETGESLTINCVLRDSNCTLSRTYWYRKKSGSTNLESISKGGRYVETVNSGSKSFSLRINDLTVEDSGTYRCASKIRYDCQGIIAYDIYGGGTVVTVNSREPKSCDKGLEVLFQ[no letters for human IgG1 Fc and a few adjoining residues]
pseudovirus neutralization IC50 [1]: 1.84 µg/mL | pseudovirus neutralization IC80 [1]: 25.8 µg/mL | pseudovirus neutralization IC50 [2]: 22.2 µg/mL | pseudovirus neutralization IC80 [2]: 44.8 µg/mL

B8: ShAb05a (ShAb05 VNAR-3c-Fc) (Fc fusion)
chain: ARVDQTPQTITKETGESLTINCVVRDSNCALGSTYWYRKKSGSTNEESITKGGRSVETVNSGSKSFSLRINDLTVEDSGTYRCKVLSIGWHDPMGLRGCDVYGGGTVVTVNSREPKSCDKGLEVLFQ[no letters for human IgG1 Fc and a few adjoining residues]
pseudovirus neutralization IC50 [1]: 31 µg/mL | pseudovirus neutralization IC80 [1]: > 50 µg/mL | pseudovirus neutralization IC50 [2]: > 50 µg/mL | pseudovirus neutralization IC80 [2]: > 50 µg/mL

B9: ShAb29a (ShAb29 VNAR-3c-Fc) (Fc fusion)
chain: ARVDQTPQTITKETGESLTINCVLRDSNCALSRTYWYRKKSGSTDEESISKGGRYVETVNSGSKSFSLRINDLTVEDSGTYRCNVYSWYGGDHNSWDWRSDPAMVCGDVYGGGTVVTVNSREPKSCDKGLEVLFQ[no letters for human IgG1 Fc and a few adjoining residues]
pseudovirus neutralization IC50 [1]: 3.3 µg/mL | pseudovirus neutralization IC80 [1]: > 5 µg/mL | pseudovirus neutralization IC50 [2]: 3 µg/mL | pseudovirus neutralization IC80 [2]: > 5 µg/mL

B10: ShAb21a (ShAb21 VNAR-3c-Fc) (Fc fusion)
chain: ARVDQTPRSVTKETGESLTINCVLREARYELGRTCWYRKKSGSRNEESISEGGRYVETVNSGSKSFSLRINDLTVEDGGTYRCGVPAAGWCPERCAPDPPYAVCGGGTVVTVNSREPKSCDKGLEVLFQ[no letters for human IgG1 Fc and a few adjoining residues]
pseudovirus neutralization IC50 [1]: 1.36 µg/mL | pseudovirus neutralization IC80 [1]: > 2 µg/mL | pseudovirus neutralization IC50 [2]: 0.676 µg/mL | pseudovirus neutralization IC80 [2]: > 2 µg/mL

B11: ShAb19a (ShAb19 VNAR-3c-Fc) (Fc fusion)
chain: ARVDQTPQTITKATGESLTINCVLRDASYALGRTCWYRKKSGSTNEESISLGGRYVETVNSGSKSFSLRINDLTVEDGGTYRCGAHRWWTVCGMPAPYAESGGGTVVTVNSREPKSCDKGLEVLFQ[no letters for human IgG1 Fc and a few adjoining residues]
pseudovirus neutralization IC50 [1]: 4.13 µg/mL | pseudovirus neutralization IC80 [1]: > 5 µg/mL | pseudovirus neutralization IC50 [2]: 2.13 µg/mL | pseudovirus neutralization IC80 [2]: > 5 µg/mL

B12: ShAb10a (ShAb10 VNAR-3c-Fc) (Fc fusion)
chain: ARVDQTPQTITKETGESLTINCVLRDSNCALSSTYWYRKKSGSTNEESISKGGRYVETVNSGSKSFSLRINDLTVEDSGTYRCHVRLRYDCESVIDFRVYGGGTVVTVNSREPKSCDKGLEVLFQ[no letters for human IgG1 Fc and a few adjoining residues]
pseudovirus neutralization IC50 [1]: 0.416 µg/mL | pseudovirus neutralization IC80 [1]: 2.89 µg/mL | pseudovirus neutralization IC50 [2]: 8.15 µg/mL | pseudovirus neutralization IC80 [2]: 28.6 µg/mL

B13: ShAb22a (ShAb22 VNAR-3c-Fc) (Fc fusion)
chain: ARVDQTPQTITKETGESLTINCVLRDNNCALSSTYWYREKSGSTNLESISLGGRYVETVNSGSKSFSLRINDLTVEDSGTYRCKVWGNEGSYDCGLESAVYGGGTVVTVNSREPKSCDKGLEVLFQ[no letters for human IgG1 Fc and a few adjoining residues]
pseudovirus neutralization IC50 [1]: 0.525 µg/mL | pseudovirus neutralization IC80 [1]: 0.97 µg/mL | pseudovirus neutralization IC50 [2]: 1.3 µg/mL | pseudovirus neutralization IC80 [2]: 3.22 µg/mL

B14: ShAb02a (ShAb02 VNAR-3c-Fc) (Fc fusion)
chain: ARVDQTPQTITKETGESLTINCVLRDSNCALASTDWYRKKSGSTNEESISKGGRYVETVNSGSKSFSLRINDLTVEDSGTYRCNAWDSWETRQLKCDYDVYGGGTVVTVNSREPKSCDKGLEVLFQ[no letters for human IgG1 Fc and a few adjoining residues]
pseudovirus neutralization IC50 [1]: < 0.023 µg/mL | pseudovirus neutralization IC80 [1]: 0.028 µg/mL | pseudovirus neutralization IC50 [2]: 0.043 µg/mL | pseudovirus neutralization IC80 [2]: 0.301 µg/mL

B15: ShAb01a (ShAb01 VNAR-3c-Fc) (Fc fusion)
chain: ARVDQTPRSVTKETGESLTINCVLRDSNCALSSTHWYRKKSGSTNEERILQGRRYVETVNSGSKSFSLRINDLRVEDSGTYRCKVYWGNSWQDKFCPGLGSYEYGDGTAVTVNSREPKSCDKGLEVLFQ[no letters for human IgG1 Fc and a few adjoining residues]
pseudovirus neutralization IC50 [1]: 0.463 µg/mL | pseudovirus neutralization IC50 [2]: 0.457 µg/mL

B16: ShAb09a (ShAb09 VNAR-3c-Fc) (Fc fusion)
chain: ARVDQTPQTITKETGESLTIDCVLRDSNCALSSTHWYRKKSGSTNEERILQGRRYVETVNSGSKSFSLRINDLRVEDSGTYRCKVYWGNSWQDKFCPGLGSYEYGGGTVVTVNSREPKSCDKGLEVLFQ[no letters for human IgG1 Fc and a few adjoining residues]
pseudovirus neutralization IC50 [1]: 0.785 µg/mL | pseudovirus neutralization IC50 [2]: 1.28 µg/mL

B17: ShAb06a (ShAb06 VNAR-3c-Fc) (Fc fusion)
chain: ARVDQTPRSVTKETGESLTINCVLRDASYALGSTCWYRKKSGSTNEESISKGGRYVETVNSGSKSFSLRINDLTVEDGGTYRCGVGRGLGVGCDYPLCSYSYAACGDGTAVTVNSREPKSCDKGLEVLFQ[no letters for human IgG1 Fc and a few adjoining residues]
pseudovirus neutralization IC50 [1]: 6.81 µg/mL | pseudovirus neutralization IC80 [1]: 36.3 µg/mL | pseudovirus neutralization IC50 [2]: 27.2 µg/mL | pseudovirus neutralization IC80 [2]: > 50 µg/mL

B18: ShAb07a (ShAb07 VNAR-3c-Fc) (Fc fusion)
chain: ARVDQTPQTITKETGESLTINCVLRDASYALGSTCWYRKKSGSTNWESIGKGGRYVETVNSGSKSFSLRINDLTVEDGGTYRCGVGRGAGVGCDYPLCSYSYAACGGGTVVTVNSREPKSCDKGLEVLFQ[no letters for human IgG1 Fc and a few adjoining residues]
pseudovirus neutralization IC50 [1]: 13.7 µg/mL | pseudovirus neutralization IC80 [1]: > 50 µg/mL | pseudovirus neutralization IC50 [2]: > 50 µg/mL | pseudovirus neutralization IC80 [2]: > 50 µg/mL

B19: ShAb24a (ShAb24 VNAR-3c-Fc) (Fc fusion)
chain: ARVDQTPQTITKETGESLTINCVLRDSNCPLSSTYWYRKKSGSTNEESIPKAGRYVETVNHGSKSFSLRINDLTVEDSGTYRCKTASNVCRSGGRTSYHYDVYGDGTAVTVNSREPKSCDKGLEVLFQ[no letters for human IgG1 Fc and a few adjoining residues]
pseudovirus neutralization IC50 [1]: 2.1 µg/mL | pseudovirus neutralization IC80 [1]: > 5 µg/mL | pseudovirus neutralization IC50 [2]: 2.3 µg/mL | pseudovirus neutralization IC80 [2]: > 5 µg/mL
